Consider 47 compounds from PubChem BioAssay AID1508642 (National Center for Advancing Translational Sciences (NCATS), 2021).

Out of some 43,000 compounds screened, about 200 (0.47%) were called active. About 12% were inconclusive and are not listed. Calls follow the shape of the dose curve; as a rule, active = well fitted cell-killing curve with a large enough effect; inconclusive = small, poorly fitted or top-dose-only effect, or effect the other way; inactive = flat fitted curve, though single readings scatter. Some of the results follow.
% is scaled to controls: 0 for no effect and ±100 for the full control effect.

The nature of this assay: Cell viability qHTS assay in S16 Pmp22-F2sN cells. Also: nearly all actives have a fitted effect of over 65% in size. To be noted: S16 Pmp22-F2sN Schwann cells (luciferase reporters placed in the Pmp22 gene) viability, CellTiter-Glo, 24 h; series mostly up to 57.5 µM; activity change, negative = cytotoxicity: at the top concentration. A digest of the protocol: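 CellTiter-Glo counter-screen, qHTS, 1536-well. Cells: S16(c9) Pmp22-F2sN, 500-1,000/well in DMEM + 10% FBS. Cpd 23 nL pin transfer, 24 h, 37C/5% CO2. Read: luminescence, CCD imager.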
(qHTS replaces the single test concentration by a dilution series.)
For the compound `O=C(COc1ccccc1Cl)N(Cc1ccco1)Cc1ccco1`, the “activity change, negative = cytotoxicity” value is inactive: -2.08%.
Regarding `Cc1ccccc1C(=O)Oc1cc(-c2ccc3c(c2)OCO3)cc(=O)c2c(C)oc(C)c12`, the “activity change, negative = cytotoxicity” value is inactive: -18.6%.
The value for `Cc1ccc(N2CCN(C(=O)c3ccc(Nc4nc5ccccc5n5nnnc45)cc3)CC2)c(C)c1` was inactive: -24.4%.
With `COc1ccccc1N1CCN(S(=O)(=O)c2c(C)sc3ncn(CC(=O)Nc4ccc(C(C)C)cc4)c(=O)c23)CC1`, the “activity change, negative = cytotoxicity” value is inactive: -2.94%.
Regarding `CC1CCN(CCCNC(=O)CN2C(=O)CSc3ccc(S(=O)(=O)N4CCC(C)CC4)cc32)CC1`, the “activity change, negative = cytotoxicity” value was inactive: -3.71%.
The value for `Cc1ccc(Cl)cc1NC(=O)c1cc2c(=O)n3cccc(C)c3nc2n1C` was inactive: 0.793%.
`Cc1ccc(S(=O)(=O)c2cnc(SCC(=O)Nc3ccccc3C(F)(F)F)[nH]c2=O)cc1C`: the “activity change, negative = cytotoxicity” value is inactive: -7.22%.
For `O=C(NCc1ccc(F)cc1)c1cnc(N2CCOCC2)c2ccccc12` the value was inactive: 3.04%.
As for `Cc1cc(C)cc(NC(=O)C2CCCN(c3cnccn3)C2)c1` (configuration not stated), the “activity change, negative = cytotoxicity” value is inactive: -0.356%.
For `CCOc1ccc(NC(=O)N2CCC(CN3CCC(C)CC3)CC2)cc1` the value was inactive: -5.23%; for `COc1ccc(-c2cc(C(=O)NCCc3ccc(Cl)cc3)[nH]n2)cc1`, inactive: 6.76%; for `Cc1ccccc1-c1nc2c3c(-c4ccccc4)c(-c4ccccc4)oc3ncn2n1`, inactive: 16.1%.
The value for `Cc1cccc(N2CCN(C(=O)COCc3cc(-c4ccc5c(c4)OCO5)on3)CC2)c1C` was inactive: 2.35%; that for `CCOC(=O)c1[nH]c2ccccc2c1NC(=O)c1cc(OC)cc(OC)c1` was inactive: -0.175%; that for `Cc1ccc(CNc2nc3c(c(=O)n(C)c(=O)n3C)n2Cc2ccc(Cl)cc2)cc1` was inactive: 8.79%.
The value for `Cc1ccc(CN(C(=O)c2ccc(F)cc2)c2ccccn2)o1` was inactive: 11%; that for `CCn1c(=O)n(-c2ccc(F)c(Cl)c2)c(=O)c2sc3ccccc3c21` was inactive: 5.87%.
Take `COC(=O)c1ccccc1NC(=O)COCc1cc(-c2cccs2)on1`: the “activity change, negative = cytotoxicity” value was inactive: 5.66%.
The value for `COc1cccc(-n2ccn(CC(=O)Nc3ccccc3F)c(=O)c2=O)c1` was inactive: 7.99%.
As for `COc1ccc2c(c1)c(CC(=O)Nc1cccc(F)c1C)c(C)n2C(=O)c1ccc(Cl)cc1`, the “activity change, negative = cytotoxicity” value is inactive: 1.43%.
The value for `O=C(Nc1ccc(F)c(F)c1)c1cc(S(=O)(=O)N2CCc3ccccc32)ccc1F` was inactive: -5.59%; that for `Cc1ccc(CNC(=O)CSCc2nc(-c3ccc(Cl)cc3)oc2C)cc1` was inactive: 3.06%; that for `CCc1ccccc1NC(=O)Cn1cc(C(=O)c2ccc(Cl)cc2)c(=O)c2ccc(C)nc21` was inactive: 1.3%.
For `Cc1ccc(CNS(=O)(=O)c2cc(C(=O)Nc3ccc(C(C)C)cc3)ccc2F)cc1` the value was inactive: -21.6%; for `COc1ccc(C2=C(C)C(N3CCC(C(=O)NCc4ccco4)CC3)=NS2(=O)=O)cc1`, inactive: 3.81%.
The value for `COCCCNC(=O)CSc1nc2cc3c(cc2c(=O)n1CCCCCC(=O)NCCc1ccc(OC)c(OC)c1)OCO3` was inactive: 3.34%; that for `CCc1nn2c(=O)cc(COC(=O)c3cccc(NC(=O)c4ccccc4C)c3)nc2s1` was inactive: 4.34%; that for `COc1ccc2c(CNC3CCCC3)c(C(=O)O)n(Cc3ccccc3C)c2c1` was inactive: 1.17%.
Turning to `Cc1ccccc1NC(=O)CN1C(=O)C2(SCC(=O)N2c2ccc(F)cc2)c2ccccc21` (configuration not stated), the “activity change, negative = cytotoxicity” value is inactive: -11.1%.
The value for `Cc1cc(C)c2c(=O)cc(C(=O)Nc3sc4c(c3C#N)CCCC4)oc2c1` was inactive: 8.3%; that for `O=C(NCc1ccc(F)cc1)c1ccc2c(c1)N(Cc1c(F)cccc1Cl)C(=O)CS2` was inactive: 14.4%.
For `CC1=C(c2ccc(C)cc2)S(=O)(=O)N(Cc2ccc(C(=O)NCc3ccccc3)cc2)C1=O` the value was inactive: 1.45%; for `Cc1ccc(C(=O)Nc2nnc(S(=O)(=O)N(C)Cc3ccco3)s2)cc1`, inactive: 0.912%.
The value for `CCn1cc(C(=O)NCCc2ccc(OC)c(OC)c2)c(=O)c2cc(S(=O)(=O)N3CCOCC3)ccc21` was inactive: 1.59%.
In the case of `CC1CCN(S(=O)(=O)c2ccc3c(ccn3CC(=O)NCc3ccccc3F)c2)CC1`, the “activity change, negative = cytotoxicity” value was inactive: -7.52%.
The value for `Cc1cccc(-n2nnc(-c3nc(-c4ccccc4)no3)c2N)c1C` was inactive: -11.3%; that for `Cc1ccc(C)c(NC(=O)CN2CCN(C3CCCCC3)C(=O)C2=O)c1` was inactive: 3%.
The value for `COc1cccc(CNC(=O)c2ccc3c(c2)nc2n3CCOC2)c1OC` was inactive: 2.51%; that for `Cc1ccc(-c2noc(C(C)NC(=O)c3ccco3)n2)cc1` (configuration not stated) was inactive: -26.5%.
For `CCc1nc2c(cnn2-c2ccc(C)cc2)c(=O)n1-c1ccc(C)cc1` the value was inactive: 0.0066%; for `COc1ccc(-c2nc(SCC(=O)NCC3CCCO3)c(-c3ccc(C)cc3)[nH]2)cc1OC` (configuration not stated), inactive: 1.87%.
`COc1ccc(C)cc1NS(=O)(=O)c1ccc2c(c1)CCCN2C(C)=O`: the “activity change, negative = cytotoxicity” value was inactive: 1.61%.
On to `COc1ccc(-c2c(C#N)c(SCC(=O)Nc3ccc(C)c(C)c3)nc(C)c2C(=O)Nc2ccccc2)cc1OC`, for which the “activity change, negative = cytotoxicity” value was inactive: -0.579%.
`Cc1ccc(N(C)S(=O)(=O)c2nnc(NC(=O)c3ccco3)s2)cc1`: the “activity change, negative = cytotoxicity” value is inactive: 4.08%.
The value for `COc1ccc(NC(=O)N2CCN(Cc3nc4ccc(C)cc4o3)CC2)cc1OC` was inactive: -1.61%; that for `CCCCNC(=O)CN1CCN(c2ccc(NC(=O)c3ccc(OC)cc3)cc2C(=O)O)CC1` was inactive: 1.46%.
The value for `O=C(NCc1ccc(Cl)cc1)c1cc2cccc3c2n1CCS3` was inactive: 1.13%.
